Experimental data: the supplement of paper PMC3334620
Over roughly 33,000 sequences, “E-score (-0.5 to 0.5)” has its median near -0.04; the highest 2% begin near 0.36. The list shows a part of the results.

These sequences were tested against T1, Hmlalpha2 (UniProt P0CY09) (assay: PBM E-score (8-mer binding enrichment) (E-score (-0.5 to 0.5)); higher = stronger / more preferred TF binding; most listed sequences are background and not binding sites). Details: protein concentration: 200 nM; construct: GST-full length.
T1 sequence: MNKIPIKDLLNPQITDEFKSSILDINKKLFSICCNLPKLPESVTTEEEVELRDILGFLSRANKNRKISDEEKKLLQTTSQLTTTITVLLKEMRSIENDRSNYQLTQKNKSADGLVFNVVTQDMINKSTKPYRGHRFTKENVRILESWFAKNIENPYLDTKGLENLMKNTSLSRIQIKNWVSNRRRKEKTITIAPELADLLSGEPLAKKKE
Method in brief: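 PURExpress in vitro transcription/translation supplied GST-tagged yeast transcription factors, either full-length or DNA-binding domain. Applied at about 100-200 nM to universal all-10-mer Agilent arrays double-stranded by primer extension, the bound protein was detected with fluorescent anti-GST. E-scores, modified Wilcoxon-Mann-Whitney statistics, were given by the Universal PBM Analysis Suite to ungapped eight-base words pooled with their reverse complements after masliner normalisation.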

Sequence | PBM E-score
GAATTTTA | 0.166
AGGGGGAT | -0.172
ATGTGAGG | 0.107
ATTATAGA | 0.0519
CACTTAGG | 0.0592
CGGTTACG | 0.0305
CAGGGGAG | -0.169
CTCTTCGC | -0.205
ACAATAAC | 0.209
CCGGCGAC | -0.323
AGGGTTCC | -0.173
GCAACTCA | 0.0124
TAGCCTGA | 0.0493
CCGCATCC | -0.124
CTACCCAG | -0.138
ACAAAAGG | -0.107
CTGAAGCA | -0.13
ACGTAATA | 0.431
GGCCCTTA | -0.227
GGGCGAAA | -0.0494
ATTCTGCC | -0.221
AATAGAAG | -0.0632
CAGAGACC | -0.156
AAGTTCTG | 0.115
TAGCAGGA | -0.176

Sequence | PBM E-score
CTTAGAAA | 0.0751
CTGCTCGC | -0.252
CTGGATAC | -0.0481
CTCGCCTC | -0.211
CGCGCGGA | -0.0877
AACCTCGG | -0.193
GGTTAGAC | -0.00223
AGTTAGAT | 0.102
AGAGACTG | -0.296
ATCACCGC | -0.0669
ACTCGCCA | -0.0518
ACCGAGCA | -0.175
GGAATGCA | -0.206
ACGCGTTA | 0.342
ACGAGTTG | 0.129
GTTTATCA | 0.126
AACTAAGT | 0.161
CCTTCACG | -0.00517
CCCTGCAG | -0.0788
CGTGAGAG | -0.281
GGCCAAGA | -0.271
CCAAAGTC | -0.141
GGCTGGAA | -0.126
ATGTGTCC | 0.0563
CGTTTTGC | 0.0605

Sequence | PBM E-score
CTCGCACA | -0.0971
GCTGGGGA | -0.272
CTGACAGC | -0.246
CAAAAACC | -0.0389
GCATTACA | 0.428
CTATTCAC | 0.15
AAAACCCG | 0.0195
AAGAGTGT | -0.0244
CAAGAAGA | -0.0574
GGGTTAGA | -0.142
GATAGGAC | -0.26
ACATCACT | 0.233
CATCAACG | 0.0679
CAGCAATC | -0.22
TGGTACCA | -0.258
ACGACATG | 0.382
ACCTACAT | 0.254
GGATAGAC | -0.0677
ACGGTACT | -0.0126
GGGGCTAC | -0.196
CGCAAGAG | -0.0527
CACGAACC | 0.0734
AACATGAT | 0.439
TAATCCTA | 0.0524
AAGCGATC | 0.0419

Sequence | PBM E-score
AAACACAC | 0.34
TATGGAAA | -0.119
CGCCGAAA | -0.152
CGGACATC | -0.265
GGTCAAGA | -0.105
ATATGGCG | -0.138
AGTGGATC | -0.191
CGCGGACC | -0.198
CAGGATCA | -0.0775
CCTACTAG | -0.0463
CAGGGTAA | -0.11
AAAATAAC | 0.148
AGCACACG | 0.134
CACGTGAA | 0.108
AGCCCAAT | 0.0175
ACTTTTCA | 0.0497
AGGCAATC | -0.0959
CCACTGGG | -0.211
CCTTTGTA | 0.295
ACGAATGC | 0.107
GTCGGCAC | -0.22
CGGGATCA | -0.135
AAGTACGT | 0.257
ATCGCTTG | -0.149
GCCGAGAC | -0.164

Sequence | PBM E-score
ACTTTCAG | -0.119
GCACTCCA | -0.115
CACTCCGC | -0.249
CATATCTC | -0.0734
ACGATCAT | 0.0309
GGTACGAC | -0.239
CAGACAGA | 0.0294
CATCCCAA | -0.0513
GGCTACTA | -0.00399
CTCGATGC | -0.227
ACCCCGAC | -0.278
CGGGCTAA | -0.207
TAATAGAA | 0.211
AGTCGAGG | -0.0737
CCTTGGGA | -0.172
ACTTACCA | 0.0557
CTCAACTA | 0.0819
AGACAGAC | 0.0667
AGGGTCAG | -0.27
ATATAGAA | 0.211
GTAGACTA | 0.0977
AAAGTCCA | -0.107
GAACGAAC | -0.0668
AGCCTGGA | -0.352
ACTATCCT | -0.296

Sequence | PBM E-score
AGGGCTAG | -0.172
AATCCCTA | 0.00595
AGGTGGGG | -0.213
GTCCCTGA | -0.107
CATAGCGA | 0.133
CGTCACCC | -0.174
CACTTTCG | -0.0448
CACAGTTC | -0.0353
AAAATGGC | -0.0978
GTCCAGAA | 0.0885
GAGATGGC | -0.12
CCGTCCCG | -0.146
ATGACTGG | -0.205
CCTTATGC | -0.0984
GAGCTATC | -0.142
GCGGCGGA | -0.0377
TCTTACCA | 0.0183
TGCATTAA | 0.248
CCGGCAAC | -0.14
CAAGTAGA | 0.0289
AGGGACGA | -0.0784
CTAGGAAA | -0.156
CAGGGGGG | -0.374
AGCTATTG | 0.13
CCTACCGC | -0.0837

Sequence | PBM E-score
AGGTGTTC | 0.0623
ATGTCGCA | 0.132
CAGAGGGA | -0.308
ATACGCGC | 0.322
AGTCGTTG | -0.11
CGGAACAC | 0.167
AAGAAGAA | 0.0987
GCGATATA | 0.067
ACTTCCTG | -0.031
CGATGCAG | -0.357
ATACTTAC | 0.298
GAATCAAA | -0.144
TAATGCCA | 0.114
GCCTCAAC | 0.044
ATAAGGGG | -0.0723
ACTTATCA | -0.116
TAGACACA | 0.194
AGTTGTCA | 0.138
TCTATCCA | -0.135
CCCGAATA | -0.0607
AAGTAGAC | 0.0105
AAATTATT | 0.209
TGCTGTAA | 0.17
CATGGCAA | 0.101
AACCTGAA | -0.225

Sequence | PBM E-score
GCCGAACA | 0.00108
CCAACTAG | 0.0799
TTCAACAA | 0.363
ACACAGGG | 0.256
CCAATTGC | -0.215
GGGCTTGA | -0.071
GGGGATCA | -0.314
AAAGTCCC | -0.198
ACTTCGGG | -0.203
CTGTCTTC | -0.202
CAAAGCAC | -0.0286
ATATGGAT | 0.0348
ACCTTGCT | -0.0655
ACAGCTAG | -0.183
ATCCACTG | -0.202
TAGCGGAA | -0.251
CGGCACGC | -0.22
ACTTTACG | 0.262
AAAGTTCA | 0.045
TGCCAAAA | 0.00486
GTATTAAC | 0.346
CGTGGGAA | -0.231
GATAGAGC | -0.115
CCACTAAC | 0.0496
TGCATGAA | 0.131

Sequence | PBM E-score
CACCGTCG | -0.14
CTTGCATA | -0.0145
AGCAGATA | -0.1
GACTCAAC | 0.167
ATTTTGAA | 0.0904
ATTTACGG | 0.12
GATACAAC | 0.148
ACCACTAT | -0.112
AAAGAGGT | 0.00806
ACTGAGGA | -0.279
AAGGGATT | -0.165
ACCCAGCG | -0.0999
ATTTAGCC | 0.0155
CCATTTAC | 0.307
CACATCCC | -0.0137
GGCGATAA | -0.299
ATGATGAA | 0.108
AGGCCGAA | -0.131
GACATTAC | 0.246
AGCCGTGG | -0.245
CTCTGGTA | -0.0526
GACGAGGA | -0.184
ACAAGGTG | 0.245
ACCAACTG | 0.00286
TATCGCGA | -0.102

Sequence | PBM E-score
AGATCGTC | -0.198
CATAGTGG | -0.167
AGAAGCAG | -0.144
CGTAATCC | 0.309
GAGAGACA | -0.114
ACTGTACC | -0.103
AGCCGCAG | -0.285
GTCTGCAA | -0.155
AGCGACCC | -0.165
ATTGTCAG | 0.166
AGGGGATC | -0.286
AGATAAGG | -0.0762
ACAAGCCT | 0.227
AGGTATAT | 0.0948
GGTAGCTA | -0.00113
TAGTGACA | 0.125
CTAAGGTA | -0.0248
ACTTGTCC | 0.0142
ATTACATC | 0.445
ATTAGCGA | -0.00398
CACTGGCA | -0.0335
CGGAGGCC | -0.334
CTATTGAA | -0.00741
ATATTCTG | 0.00643
TCATACAA | 0.0397

Sequence | PBM E-score
CCAGCTCG | -0.181
CTTACGCA | 0.341
AATACGTC | 0.226
AAGCATTC | -0.00091
ATTCCGAG | -0.116
CGGGGACC | -0.311
TTAAGTAA | 0.213
CTAAGGAC | -0.106
GACAAAAC | 0.156
ATTTATGC | 0.0193
CAGGTTCG | -0.125
AATCGTCT | 0.00339
AGACTACA | 0.214
ACGCTTAG | 0.0769
AGGCGTCA | -0.143
AGTGTATG | 0.107
AGTGCCAG | -0.0844
ACGGGCGA | -0.261
ACGTAGTA | 0.232
ACTGATGG | -0.0982
ACAGGTGC | -0.0992
CACGAAGA | 0.11
ATGTCATC | 0.0953
CAACAGCC | 0.0886
CCGGTACA | 0.142

Sequence | PBM E-score
ACCGTGAA | -0.0846
AGCCTACA | 0.134
AGGGCATG | 0.128
GGGCCTGA | -0.262
CACTCGCC | -0.169
GGGGCGCA | -0.136
ACACGCTC | 0.399
CAGACTCG | -0.19
ACATTGAA | 0.251
ATCTAGCC | -0.297
ACCTCAGC | -0.0793
ATAACCTA | 0.125
CCGCACCG | -0.0442
ATTAGCTC | 0.0366
CTTGCCGA | -0.0654
AATATGAG | 0.0751
ATCTTCAA | 0.119
AAGGAATG | -0.0711
CGTACAGA | 0.11
GACGAATA | -0.00662
TCCTCGCA | -0.204
CAAAGATG | -0.0782
CCATCCTC | -0.107
AGTCCTGG | -0.302
ACCCGTCG | -0.181

Sequence | PBM E-score
AGGAAAGA | -0.198
AACTTTGA | 0.0867
AGCACTCG | -0.295
CGCATCTC | -0.072
CCACTTCC | 0.00834
ACGGATAA | 0.0652
ATCAAGAC | 0.107
AGTTTGAC | 0.155
GACCCATC | -0.13
GAAACACA | 0.252
CAGCGACA | -0.0988
CGCGGAAA | -0.0502
CGCAGAAC | 0.157
CTGCTGCA | -0.131
CATTTCGG | -0.0384
CTCTACGA | 0.094
TACATAGA | 0.427
AGCCTCCG | -0.164
CCACGCTA | -0.17
CAGTGTCA | 0.124
ACAGGTTG | 0.0587
CCGTTTCA | -0.181
GATACTAA | 0.0853
AAGTCATA | -0.0514
GATTGGAA | -0.207

Sequence | PBM E-score
AACCGGCG | -0.012
GTCTCACA | -0.0902
AGAGGGGA | -0.29
ATGGAAAG | 0.0245
GCAACCGC | -0.014
ACGCAAGA | 0.157
TCCTCAAA | 0.174
CGCTCCCC | -0.254
AGGGTAAT | -0.0496
ACGATTCA | -0.0549
GGCCGACC | -0.28
TATGCAAA | 0.213
AAATGCTA | 0.0509
AATGCATC | 0.0637
AACGGGCA | -0.25
AGAATATA | 0.0401
CTCACTAC | 0.00421
AAAAAGCT | -0.181
AATTAGAG | 0.079
